# Results reported in PubChem BioAssay AID624417 (National Center for Advancing Translational Sciences (NCATS), 2012).
# The whole screen tested about 410,000 compounds, of which about 6,400 (1.6%) were called active. This list was built around the results that the source calls inconclusive (neither active nor inactive); the mix of calls is not that of the screen. The call rests on the fitted dose curve; in most records, active means well fitted inhibition curve with a large enough effect; inconclusive means small, poorly fitted or top-dose-only effect; inactive means no such curve, though single readings can be large or run the other way. No potency is given beside an inconclusive call; the fits are too rough.
# Target: Glucagon-like peptide 1 receptor (Homo sapiens) (UniProt P43220)
# UniProt P43220, sequence (P43220 whole entry, looked up): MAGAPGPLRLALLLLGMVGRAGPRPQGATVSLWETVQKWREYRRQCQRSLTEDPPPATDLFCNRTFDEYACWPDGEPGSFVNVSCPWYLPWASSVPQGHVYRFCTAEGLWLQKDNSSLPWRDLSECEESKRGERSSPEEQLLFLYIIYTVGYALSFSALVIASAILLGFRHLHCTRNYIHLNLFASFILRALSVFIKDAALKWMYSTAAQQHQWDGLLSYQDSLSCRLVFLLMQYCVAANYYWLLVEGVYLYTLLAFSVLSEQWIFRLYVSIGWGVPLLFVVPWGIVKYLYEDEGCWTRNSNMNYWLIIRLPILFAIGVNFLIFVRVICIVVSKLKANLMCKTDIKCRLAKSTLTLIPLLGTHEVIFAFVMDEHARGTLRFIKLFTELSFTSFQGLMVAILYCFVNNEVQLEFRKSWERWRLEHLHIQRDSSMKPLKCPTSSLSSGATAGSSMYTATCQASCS
# Assay: qHTS of GLP-1 Receptor Inverse Agonists (Inhibition Mode); further: nearly all actives have a fitted effect of over 55% in size
# Details: HEK293 GLP-1R CRE-luciferase, luminescence, 24 h; Potency: GLP-1R form is constitutively active unless noted; series mostly up to 38.3 µM
# In short: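 Seeding at 200 cells/uL, 12 h culture, 24 hr compound treatment, then luciferase reagent and a luminescence read; cells are HEK293 stably expressing a constitutively active GLP-1R plus cAMP-responsive luciferase.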
# Potency means the concentration at half of the fitted maximal effect; tags describe the fitted curve by direction and shape.
row,SMILES,Potency
1,CCCCCc1cc(O)c2c3c(c(=O)oc2c1)CN(C)CC3,"inconclusive [inhibitor, partial curve]"
2,Cc1ccc(N2CCN(C(=O)c3cn(CC4CCCCC4)nn3)C(C)C2)cc1 (stereo not drawn),"inconclusive [inhibitor, partial curve, poor fit]"
3,CC(Cc1cccs1)NCc1ccccc1 (stereo not drawn),inactive
4,O=C(c1ccc2c3c(cccc13)CC2)C1CCCN(Cc2ncc[nH]2)C1 (stereo not drawn),"inconclusive [inhibitor, partial curve]"
5,CN1c2ccc([N+](=O)[O-])cc2CC2(C(=O)NC(=O)N(c3ccc(Br)cc3)C2=O)C1c1ccccc1 (stereo not drawn),"inconclusive [inhibitor, full curve, poor fit]"
6,CC[C@H]1CC2CN3CCc4c([nH]c5cc(OC)ccc45)[C@](C(=O)OC)(C2)[C@H]13,"inconclusive [inhibitor, single point]"
7,CCCC1(CCC)C(=O)NC(=NCc2ccccc2)NC1=O,"inconclusive [inhibitor, single point]"
8,Cc1noc(C)c1CSCC(=O)Nc1ccc(C#N)c(Cl)c1,"inconclusive [inhibitor, single point]"
9,Cc1cc(/C=C2\C(=O)NC(=O)N(c3cccc(F)c3)C2=O)c(C)n1-c1ccc(C(=O)O)c(Cl)c1,inactive
10,O=C(CCn1c(=O)oc2ccccc21)N1CCN(C(c2ccccc2)c2ccccc2)CC1,"inconclusive [inhibitor, partial curve, poor fit]"
11,CC(C)CC(N)c1csc(NC(=O)Nc2ccccc2-c2ccccc2)n1 (stereo not drawn),"inconclusive [inhibitor, single point]"
12,COc1ccccc1OCCCn1cc(C=O)c2ccccc21,"inconclusive [inhibitor, partial curve]"
13,O=c1[nH]c(CN2CC=C(c3ccccc3)CC2)nc2scc(-c3ccccc3)c12,"inconclusive [inhibitor, single point]"
14,CCN(c1ccc(C)cc1C)S(=O)(=O)c1nnc(NC(=O)c2ccco2)s1,"inconclusive [inhibitor, partial curve, poor fit]"
15,COC(=O)C1C(C(=O)O)C2(Cl)C(Cl)=C(Cl)C1(Cl)C2(Cl)Cl (stereo not drawn),"inconclusive [inhibitor, partial curve, poor fit]"
16,C/C(N)=C(/C#N)C(=O)CSc1nc2cc(Cl)ccc2c(=O)n1-c1ccc(C)cc1,"inconclusive [inhibitor, partial curve, poor fit]"
17,COC(=O)C1=C(c2ccc(F)cc2OCc2ccccc2)C[C@@H]2CC[C@H]1N2C(=O)NCc1ccccc1C(F)(F)F,active: 12.6 µM [setting not given]
18,O=C(COc1ccc2ccccc2c1)N1CCN(Cc2c[nH]c3ccccc23)CC1,active: 11.2 µM [setting not given]
19,C/C1=C\[C@@H](C)C/C=C/[C@H]2[C@@H]3O[C@]3(C)[C@@H](C)[C@H]3[C@H](Cc4c[nH]c5ccccc45)NC(=O)[C@]32C(=O)/C=C/C(=O)[C@@H]1O,"inconclusive [inhibitor, single point]"
20,CN(C)C1(CNC(=O)c2ccc(NS(=O)(=O)c3ccc(Cl)c(Cl)c3)cc2)CCCCC1,"inconclusive [inhibitor, single point]"
21,CSCCC(c1nnnn1-c1ccc2c(c1)OCCO2)N1CCC(n2c(=O)[nH]c3ccccc32)CC1 (stereo not drawn),"inconclusive [inhibitor, full curve, poor fit]"
22,N#Cc1cc2c(nc1SCC(=O)Nc1ccc(F)c(Cl)c1)C1CCN2CC1,inactive
23,Cc1ccccc1CCNCc1ccc(Br)cc1,"inconclusive [inhibitor, single point]"
24,COc1ccc(-n2nc(C(=O)NCC(=O)N3CCC4(CC3)OCCO4)c3ccccc3c2=O)cc1OC,inactive
25,CN1CC(C(=O)c2cccc(C(F)(F)F)c2)C(c2ccc(Cl)cc2)C1 (stereo not drawn),"inconclusive [inhibitor, single point]"
26,CC(C)c1ccc(N2C(=O)NC(=O)/C(=C\C=C\c3ccco3)C2=O)cc1,"inconclusive [inhibitor, single point]"
27,C=CCn1c(=O)c(C(=O)NCc2ccccc2)c(O)c2ccccc21,"inconclusive [inhibitor, partial curve, poor fit]"

row,SMILES,Potency
1,CCN(CC(=O)Nc1ccccc1C(F)(F)F)C(=O)CCSc1ccc(F)cc1,"inconclusive [inhibitor, partial curve]"
2,CN1CCN(C(=S)SCC(=O)Nc2ccc(Cl)cc2C(=O)c2ccccc2)CC1,"inconclusive [inhibitor, single point]"
3,CCOc1ccc(NC(=S)NC2CC3CCC(C2)N3Cc2ccco2)cc1 (stereo not drawn),"inconclusive [inhibitor, single point]"
4,Cc1ccc(Cn2nc(C(=O)Nc3ccc(Br)cc3)cc2C)cc1,"inconclusive [inhibitor, full curve, poor fit]"
5,Cc1cc(C)n2c(Nc3ccc4c(c3)OCCO4)c(-c3cc4ccccc4o3)nc2n1,"inconclusive [inhibitor, full curve, poor fit]"
6,CCOC(=O)[C@]12Cc3cc(Cl)ccc3[C@H]1N(Cc1ccccc1)C(=O)c1ccccc12,"inconclusive [inhibitor, single point]"
7,C/C(=N\NP(=S)(c1ccccc1)c1ccccc1)c1ccc(O)cc1O,active: 11.2 µM [setting not given]
8,O=Cc1c(C(=O)O)n(Cc2ccccc2F)c2ccccc12,inactive
9,Cc1ccccc1-c1ccc2n1Cc1cnnn1-c1ccccc1-2,"inconclusive [inhibitor, single point]"
10,COc1ccccc1CNCC(=O)Nc1cc(S(=O)(=O)N2CCCCC2)ccc1C,"inconclusive [inhibitor, partial curve, poor fit]"
11,Oc1ccccc1/C=N/NP(=S)(c1ccccc1)c1ccccc1,"inconclusive [inhibitor, partial curve, poor fit]"
12,CCOc1ccc(-c2cc(C)[n+](CCN3CCOCC3)c(-c3ccc(OCC)cc3)c2)cc1,"inconclusive [inhibitor, partial curve]"
13,COc1cc2c(cc1O)[C@@H]1Cc3ccc(OC)c(O)c3CN1CC2,active: 10 µM
14,Cc1onc(-c2ccccc2Cl)c1C(=O)OCC(=O)c1ccc2c(c1)OCCO2,"inconclusive [inhibitor, partial curve, poor fit]"
15,O=C(c1ccc(Cl)cc1)C1CCCN(Cc2ccc3ncccc3c2)C1 (stereo not drawn),"inconclusive [inhibitor, single point]"
16,Clc1ccc2c(c1)C(OC1CN3CCC1CC3)c1ccccc1CS2 (stereo not drawn),active: 2.82 µM [setting not given]
17,Cc1nn(Cc2ccccc2)c(C)c1C(=O)NC1CCCc2ccccc21 (stereo not drawn),"inconclusive [inhibitor, partial curve, poor fit]"
18,COc1cc(C2c3cc4c(cc3CC3COC(=O)C32)OCO4)cc(OC)c1OC (stereo not drawn),active: 0.282 µM [setting not given]
19,CCC1(OC(=O)c2ccccc2)CC(C)N(C)CC1C (stereo not drawn),"inconclusive [inhibitor, full curve, poor fit]"
20,CCOC(=O)c1ccc(N2C(=O)CC(N3CC=C(c4ccc(F)cc4)CC3)C2=O)cc1 (stereo not drawn),inactive
21,CC/C(=N\Nc1ccccc1)c1c(O)n(-c2ccc(OC)cc2)c(=O)[nH]c1=O,"inconclusive [inhibitor, full curve, poor fit]"
22,O=[N+]([O-])/C=C/c1c(Cl)cccc1Cl,"inconclusive [inhibitor, partial curve, poor fit]"
23,COc1cccc(CNC(=O)c2cc3c(-c4ccccc4F)nn(C)c3s2)c1,"inconclusive [inhibitor, single point]"
24,CCOc1cc2c(cc1OCC)-n1cccc1C(c1ccc(OC)c(OC)c1)NC2 (stereo not drawn),"inconclusive [inhibitor, partial curve]"
25,Cc1cccc(C)c1-n1nnnc1C(c1cccs1)N1CCC(n2c(=O)[nH]c3ccccc32)CC1 (stereo not drawn),"inconclusive [inhibitor, single point]"
26,CC[C@H](C)/C=C(C)/C=C/C1=CC2=C(Cl)C(=O)[C@@](C)(OC(C)=O)C(=O)C2=CO1,"inconclusive [inhibitor, single point]"
